Measured values published in article PMC4336329 (PLoS ONE, 2015).
About 2,200 (0.71%) of roughly 310,000 compounds showed an effect of 50% or more. Effects have a minus sign here. The list shows a part of the results.

The compounds below were run against human ether-à-go-go-related gene (hERG) potassium channel (human, UniProt Q12809) (assay: primary screen, population patch clamp on CHO cells stably expressing hERG).
Sequence of human ether-à-go-go-related gene (hERG) potassium channel (Q12809 whole entry, looked up): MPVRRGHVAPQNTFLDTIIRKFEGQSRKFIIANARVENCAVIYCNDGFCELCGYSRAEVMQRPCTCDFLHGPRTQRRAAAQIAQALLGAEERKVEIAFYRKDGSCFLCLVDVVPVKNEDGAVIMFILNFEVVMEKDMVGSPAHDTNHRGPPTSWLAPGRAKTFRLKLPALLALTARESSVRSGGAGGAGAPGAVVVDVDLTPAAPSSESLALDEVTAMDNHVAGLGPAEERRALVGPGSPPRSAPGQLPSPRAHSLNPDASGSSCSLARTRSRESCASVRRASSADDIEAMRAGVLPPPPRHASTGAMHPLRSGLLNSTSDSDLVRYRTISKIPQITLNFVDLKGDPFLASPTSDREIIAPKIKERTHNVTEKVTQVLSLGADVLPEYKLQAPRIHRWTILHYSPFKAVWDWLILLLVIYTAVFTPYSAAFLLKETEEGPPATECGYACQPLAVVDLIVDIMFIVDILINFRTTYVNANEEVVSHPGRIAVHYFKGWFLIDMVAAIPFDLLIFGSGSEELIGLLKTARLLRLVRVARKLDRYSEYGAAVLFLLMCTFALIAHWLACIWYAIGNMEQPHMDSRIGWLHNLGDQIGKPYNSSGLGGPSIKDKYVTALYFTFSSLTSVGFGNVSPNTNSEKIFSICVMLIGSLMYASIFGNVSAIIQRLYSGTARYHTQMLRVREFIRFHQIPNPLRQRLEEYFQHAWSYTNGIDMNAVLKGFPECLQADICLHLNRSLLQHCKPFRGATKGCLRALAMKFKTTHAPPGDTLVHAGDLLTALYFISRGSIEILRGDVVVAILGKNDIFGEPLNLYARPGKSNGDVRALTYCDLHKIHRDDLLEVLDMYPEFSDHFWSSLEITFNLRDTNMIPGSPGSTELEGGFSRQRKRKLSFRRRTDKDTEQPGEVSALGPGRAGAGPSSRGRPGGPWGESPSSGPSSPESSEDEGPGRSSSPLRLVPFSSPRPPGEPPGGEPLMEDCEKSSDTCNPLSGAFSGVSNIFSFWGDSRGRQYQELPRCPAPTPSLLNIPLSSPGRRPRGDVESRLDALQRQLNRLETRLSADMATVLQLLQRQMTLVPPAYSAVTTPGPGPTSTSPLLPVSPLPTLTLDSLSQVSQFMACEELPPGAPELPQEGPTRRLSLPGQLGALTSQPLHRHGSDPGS

SMILES | hERG current change (%, negative = inhibition) at 1uM
Cc1onc(-c2c(Cl)cccc2Cl)c1C(=O)N(C)Cc1ccccc1 | 13.9%
CCN(CC)C(=O)C1CCCN(Cc2ccccc2F)C1 (centres unmarked) | 14.8%
COc1ccc2nc(NC(=O)c3cc(C)oc3C)sc2c1 | 9.47%
CNCCCOc1cccc(Oc2ccccc2)c1.O=C(O)C(=O)O | 2.63%
CN(N)N=Nc1nc2c([nH]1)c(=O)n(C)c(=O)n2C | 8.61%
CCc1ccc2[nH]c(O)c(N=Nc3nc(-c4ccccc4)cs3)c2c1 | 3.9%
CC(C)C(C(=O)NCC1CCCO1)N(Cc1ccco1)C(=O)CNS(=O)(=O)c1ccccc1 (centres unmarked) | 11.3%
O=C1C2CCCN2C(=O)N1CCCN1CCN(c2cccc(Cl)c2)CC1 (centres unmarked) | 3.46%
CN1CCC(=C(c2ccccc2)c2ccc(Br)cc2)CC1.Cl | -17.8%
Cc1ccc(CNC(=O)CS(=O)Cc2nc(-c3ccccc3Cl)oc2C)cc1 (centres unmarked) | 13.6%
COc1ccc(S(=O)(=O)N2CCCOC2CNC(=O)C(=O)NCCCn2ccnc2)cc1 (centres unmarked) | 4.48%
CC(NC(=O)N1CCN(c2ccccc2F)CC1)c1ccc(F)c(F)c1 (centres unmarked) | 18.4%
CCCN1CCCC(C(=O)c2cc(C)c(OC)c(C)c2)C1 (centres unmarked) | 9.9%
O=C(Nc1nc2ccsc2c(=O)s1)c1ccco1 | 8.69%
Nc1cc(=O)[nH]c(SCc2ccc(Cl)cc2Cl)n1 | 12.2%
Cc1ccc(NC(=O)CCNS(=O)(=O)c2ccccc2)cc1S(=O)(=O)N1CCOCC1 | 18.1%
Cc1ccc(C(=O)Nc2ccc3c(c2)nc2n3CCSC2)cc1 | -10.9%
C=CCNC(=O)C1CCN(c2cnccn2)CC1 | 12.1%
O=C(CSc1nnc(-c2ccco2)n1Cc1ccccc1)NCc1ccccc1 | 1.17%

SMILES | hERG current change (%, negative = inhibition) at 1uM
COc1ccc(C(=O)NC(C)c2ccccc2)cc1Br (centres unmarked) | 9.26%
Cc1cc(C)nc(Nc2n[nH]c(-c3cccc4ccccc34)n2)n1 | -4.86%
COc1ccccc1CCC(=O)OCC(=O)NC1CCCC1 | 6.62%
COc1ccc(C[C@H]2CN3C(=NC[C@@H]3C(C)C)N2CCNC(=O)c2ccc(C)c(Br)c2)cc1 | -66.8%
O=C(C1CCCN1S(=O)(=O)c1ccc(Cl)cc1)N1CCOCC1 (centres unmarked) | 6.33%
CCOC(=O)C1C2C=CC3(CN(CCc4ccccc4)C(=O)C13)O2 (centres unmarked) | 11%
O=C(Nc1ccc(Cc2ccncc2)cc1)c1cccs1 | 5.03%
CC(C)(C)C(=O)Nc1cc(S(=O)(=O)Nc2ccc(Cl)cc2)ccc1O | 12.2%
Cc1cccc(C(=O)OCC(=O)c2ccc(CC(=O)N3CCOCC3)s2)c1C | -2.12%
O=C(Nc1ccc(N2CCCC2)c(Cl)c1)c1ccc(Br)o1 | 11.2%
NC(=O)CC(NC(=O)c1ccccc1)c1ccc(NCCOc2ccccc2)c([N+](=O)[O-])c1 (centres unmarked) | 3.88%
Cc1csc2c(N3CCN(C(=O)Nc4ccccc4)CC3)ncnc12 | 3.23%
COc1ccc2nc(NC(=O)CN(C)S(=O)(=O)c3cccs3)sc2c1 | -0.451%
COc1ccc(C(=O)Nc2cccc(C(=O)N3CCCC3)c2)cc1 | 8.03%
COc1ccc(Cl)cc1NC(=O)c1c(-c2ccccc2)noc1C | 11.2%
CSCCCc1cn([C@@H](CO)C(=O)NCCCCCCCCCCC(=O)N2CCNCC2)nn1 | 14.6%
COc1cccc(C(=O)NC2CC3CCCC(C2)N3CC(=O)Nc2ccc(N(C)C)cc2)c1 (centres unmarked) | -7.26%
CC(=O)NC(Cc1c[nH]c2ccccc12)C(=O)NCCc1ccccc1 (centres unmarked) | 15%
CCN(CC(=O)Nc1ccc2c(c1)OCCO2)C(=O)/C=C/c1cccc(OC)c1OC | 15.4%

SMILES | hERG current change (%, negative = inhibition) at 1uM
O=C1NC(=O)C(CC(=O)N(Cc2cccs2)C2(C(=O)NC3CCCCC3)CCCCC2)N1 (centres unmarked) | 12%
COc1cc(NC(=O)[C@@H]2CCCN2S(=O)(=O)c2cccc3cccnc23)cc(OC)c1OC | 8.88%
O=C(CN1C(=O)c2ccc([N+](=O)[O-])cc2C1=O)Nc1nccs1 | 9.83%
COc1ccc(N2C(=O)CN=C2Nc2cccc(C)c2C)cc1OC | 5.77%
COc1c2n(C)ccc3c-2n(c(=O)c1=O)c1ccccc31 | 12.6%
O=C(O)CC(CC(=O)N1CCN(C(=O)c2ccco2)CC1)c1ccccc1 (centres unmarked) | 11.4%
CC(C)(C)NC(=O)CN(C(=O)c1ccc(Cl)nc1)c1cccc2ccccc12 | -3.75%
COc1ccc(-c2sc(Nc3ccccc3)n[n+]2C)c(C)c1C.[Cl-] | 7.26%
Clc1ccc2nc(CSCc3ccccc3)cn2c1 | -1.33%
O=C(NCc1ccco1)C(=S)N1CCCC1 | 12.6%
COc1ccc(C(=O)Nc2cccc3cccnc23)cc1OC | 11%
CCOC(=O)c1sc(NC(=O)c2ccco2)nc1C | 7.75%
O=C(O)c1csc(-c2ccccc2)n1 | 13.9%
CCN(CC)CC.CCOc1ccccc1-n1c(=S)sc2c(=O)n(-c3ccccc3)c(=S)[nH]c21 | 23.7%
CCCN(Cc1nc2cc(Cl)ccc2c(=O)[nH]1)C(=O)c1ccc(S(=O)(=O)N2CCCC2)cc1 | -14.8%
COC(=O)c1[nH]c2ccc(Br)cc2c1NC(=O)C(C)N1CCN(C2CCCCC2)CC1 (centres unmarked) | -82.6%
CCN(CC(=O)Nc1ccc(NC(C)=O)cc1)CC(=O)Nc1ccc(F)c(Cl)c1 | 6.79%
COc1ccc(C(=O)OCC(=O)NCCCc2ccccc2)cc1[N+](=O)[O-] | 4.87%
